Laboratory results as given in patent US20210238308A1 (Chugai, published 2021).

B1: 3D8VH-G1m/hT4VL-KT0.Avi E345K (antibody, human IgG1, kappa)
heavy: EVQLVESGGGLVQPGGSLRLSCAASGYTFTSYVMHWVRQAPGKGLEWVSAINPYNDGNYYADSVKGRFTISRDNSRKTLYLQMNSLRAEDTAVYYCARGAYKRGYAMDYWGQGTTVTVSSASTKGPSVFPLAPSSKSTSGGTAALGCLVKDYFPEPVTVSWNSGALTSGVHTFPAVLQSSGLYSLSSVVTVPSSSLGTQTYICNVNHKPSNTKVDKKV[human IgG1 Fc with E345K (EU numbers) omitted here]
light: [about 200 residues omitted here]GGGGSGLNDIFEAQKIEWHE
B2: 3D8VH-G1m/hT4VL-KT0.Avi H433A (antibody, human IgG1, kappa)
heavy: EVQLVESGGGLVQPGGSLRLSCAASGYTFTSYVMHWVRQAPGKGLEWVSAINPYNDGNYYADSVKGRFTISRDNSRKTLYLQMNSLRAEDTAVYYCARGAYKRGYAMDYWGQGTTVTVSSASTKGPSVFPLAPSSKSTSGGTAALGCLVKDYFPEPVTVSWNSGALTSGVHTFPAVLQSSGLYSLSSVVTVPSSSLGTQTYICNVNHKPSNTKVDKKV[human IgG1 Fc with H433A (EU numbers) omitted here]
light: [about 200 residues omitted here]GGGGSGLNDIFEAQKIEWHE
B3: 3D8VH-G1m/hT4VL-KT0.Avi H433L (antibody, human IgG1, kappa)
heavy: EVQLVESGGGLVQPGGSLRLSCAASGYTFTSYVMHWVRQAPGKGLEWVSAINPYNDGNYYADSVKGRFTISRDNSRKTLYLQMNSLRAEDTAVYYCARGAYKRGYAMDYWGQGTTVTVSSASTKGPSVFPLAPSSKSTSGGTAALGCLVKDYFPEPVTVSWNSGALTSGVHTFPAVLQSSGLYSLSSVVTVPSSSLGTQTYICNVNHKPSNTKVDKKV[human IgG1 Fc with H433L (EU numbers) omitted here]
light: [about 200 residues omitted here]GGGGSGLNDIFEAQKIEWHE
B4: 3D8VH-G1m/hT4VL-KT0.Avi H435A (antibody, human IgG1, kappa)
heavy: EVQLVESGGGLVQPGGSLRLSCAASGYTFTSYVMHWVRQAPGKGLEWVSAINPYNDGNYYADSVKGRFTISRDNSRKTLYLQMNSLRAEDTAVYYCARGAYKRGYAMDYWGQGTTVTVSSASTKGPSVFPLAPSSKSTSGGTAALGCLVKDYFPEPVTVSWNSGALTSGVHTFPAVLQSSGLYSLSSVVTVPSSSLGTQTYICNVNHKPSNTKVDKKV[human IgG1 Fc with H435A (EU numbers) omitted here]
light: [about 200 residues omitted here]GGGGSGLNDIFEAQKIEWHE
B5: 3D8VH-G1m/hT4VL-KT0.Avi H435F (antibody, human IgG1, kappa)
heavy: EVQLVESGGGLVQPGGSLRLSCAASGYTFTSYVMHWVRQAPGKGLEWVSAINPYNDGNYYADSVKGRFTISRDNSRKTLYLQMNSLRAEDTAVYYCARGAYKRGYAMDYWGQGTTVTVSSASTKGPSVFPLAPSSKSTSGGTAALGCLVKDYFPEPVTVSWNSGALTSGVHTFPAVLQSSGLYSLSSVVTVPSSSLGTQTYICNVNHKPSNTKVDKKV[human IgG1 Fc with H435F (EU numbers) omitted here]
light: [about 200 residues omitted here]GGGGSGLNDIFEAQKIEWHE
B6: 3D8VH-G1m/hT4VL-KT0.Avi L432R (antibody, human IgG1, kappa)
heavy: EVQLVESGGGLVQPGGSLRLSCAASGYTFTSYVMHWVRQAPGKGLEWVSAINPYNDGNYYADSVKGRFTISRDNSRKTLYLQMNSLRAEDTAVYYCARGAYKRGYAMDYWGQGTTVTVSSASTKGPSVFPLAPSSKSTSGGTAALGCLVKDYFPEPVTVSWNSGALTSGVHTFPAVLQSSGLYSLSSVVTVPSSSLGTQTYICNVNHKPSNTKVDKKV[human IgG1 Fc with L432R (EU numbers) omitted here]
light: [about 200 residues omitted here]GGGGSGLNDIFEAQKIEWHE
B7: 3D8VH-G1m/hT4VL-KT0.Avi M428R (antibody, human IgG1, kappa)
heavy: EVQLVESGGGLVQPGGSLRLSCAASGYTFTSYVMHWVRQAPGKGLEWVSAINPYNDGNYYADSVKGRFTISRDNSRKTLYLQMNSLRAEDTAVYYCARGAYKRGYAMDYWGQGTTVTVSSASTKGPSVFPLAPSSKSTSGGTAALGCLVKDYFPEPVTVSWNSGALTSGVHTFPAVLQSSGLYSLSSVVTVPSSSLGTQTYICNVNHKPSNTKVDKKV[human IgG1 Fc with M428R (EU numbers) omitted here]
light: [about 200 residues omitted here]GGGGSGLNDIFEAQKIEWHE
B8: 3D8VH-G1m/hT4VL-KT0.Avi N434G (antibody, human IgG1, kappa)
heavy: EVQLVESGGGLVQPGGSLRLSCAASGYTFTSYVMHWVRQAPGKGLEWVSAINPYNDGNYYADSVKGRFTISRDNSRKTLYLQMNSLRAEDTAVYYCARGAYKRGYAMDYWGQGTTVTVSSASTKGPSVFPLAPSSKSTSGGTAALGCLVKDYFPEPVTVSWNSGALTSGVHTFPAVLQSSGLYSLSSVVTVPSSSLGTQTYICNVNHKPSNTKVDKKV[human IgG1 Fc with N434G (EU numbers) omitted here]
light: [about 200 residues omitted here]GGGGSGLNDIFEAQKIEWHE
B9: 3D8VH-G1m/hT4VL-KT0.Avi N315Q.M428F (antibody, human IgG1, kappa)
heavy: EVQLVESGGGLVQPGGSLRLSCAASGYTFTSYVMHWVRQAPGKGLEWVSAINPYNDGNYYADSVKGRFTISRDNSRKTLYLQMNSLRAEDTAVYYCARGAYKRGYAMDYWGQGTTVTVSSASTKGPSVFPLAPSSKSTSGGTAALGCLVKDYFPEPVTVSWNSGALTSGVHTFPAVLQSSGLYSLSSVVTVPSSSLGTQTYICNVNHKPSNTKVDKKV[human IgG1 Fc with N315Q M428F (EU numbers) omitted here]
light: [about 200 residues omitted here]GGGGSGLNDIFEAQKIEWHE
B10: 3D8VH-G1m/hT4VL-KT0.Avi N315Q.Q438E (antibody, human IgG1, kappa)
heavy: EVQLVESGGGLVQPGGSLRLSCAASGYTFTSYVMHWVRQAPGKGLEWVSAINPYNDGNYYADSVKGRFTISRDNSRKTLYLQMNSLRAEDTAVYYCARGAYKRGYAMDYWGQGTTVTVSSASTKGPSVFPLAPSSKSTSGGTAALGCLVKDYFPEPVTVSWNSGALTSGVHTFPAVLQSSGLYSLSSVVTVPSSSLGTQTYICNVNHKPSNTKVDKKV[human IgG1 Fc with N315Q Q438E (EU numbers) omitted here]
light: [about 200 residues omitted here]GGGGSGLNDIFEAQKIEWHE

Target: T1, human TRIM21 PRYSPRY domain with N-terminal 6xHis tag (human)
T1 construct: Expressed from pET28a in E. coli; also called hTRIM21
T1 chain: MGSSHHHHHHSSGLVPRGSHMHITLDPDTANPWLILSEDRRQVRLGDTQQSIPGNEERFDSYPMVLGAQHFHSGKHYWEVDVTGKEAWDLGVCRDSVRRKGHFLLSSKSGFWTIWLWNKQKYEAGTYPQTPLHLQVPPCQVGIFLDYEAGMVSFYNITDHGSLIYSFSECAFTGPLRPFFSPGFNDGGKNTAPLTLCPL
Assay: SPR, Ab captured on Protein L

Binder | binding result
B1 | no binding (tested: 200 nM)
B2 | no binding (tested: 200 nM)
B3 | no binding (tested: 200 nM)
B4 | no binding (tested: 200 nM)
B5 | no binding (tested: 200 nM)
B6 | no binding (tested: 200 nM)
B7 | no binding (tested: 200 nM)
B8 | no binding (tested: 200 nM)

Target: T1, human TRIM21 PRYSPRY domain with …
Assay: SPR, Ab captured on Protein L, hTRIM21 12.5-200 nM

Binder | Kd [nM] | koff [s⁻¹] | kon [M⁻¹ s⁻¹]
B9 | 3.58 | 0.00599 | 1.67e+06
B10 | 2.74 | 0.00801 | 2.93e+06
